# Data taken from article PMC6451091.
# Some of the results follow. For part of these data: At the low end of the ranking, values are background and their order means little. For part of these data: The protein was read in a cell extract, so binding may be indirect.
# Columns and labels:
# Settings in all cases: 20 mM HEPES pH 7.9, 100 mM NaCl, 1 mM DTT, 0.2 mg/mL BSA, 0.02% Triton X-100, 2% milk, 0.4 mg/mL salmon testes DNA; 1 h; temperature not stated; high values mean tight binding; double strand, one strand shown; sequences stand for … in GCCTAGCAC…GTGCTAGGTCTTGATTCGCTTGACGCTGCTG
# [1] = molecular target: PU.1 (IVT) (UniProt P17947); test: protein-binding microarray (PBM)
# [2] = molecular target: PU.1 (endogenous, THP-1 nuclear extract) (UniProt P17947); test: nuclear extract protein-binding microarray (nextPBM)
# [3] = molecular target: T1, FLI1 (endogenous, THP-1 nuclear extract) (UniProt Q01543); test: as above
# T1 sequence: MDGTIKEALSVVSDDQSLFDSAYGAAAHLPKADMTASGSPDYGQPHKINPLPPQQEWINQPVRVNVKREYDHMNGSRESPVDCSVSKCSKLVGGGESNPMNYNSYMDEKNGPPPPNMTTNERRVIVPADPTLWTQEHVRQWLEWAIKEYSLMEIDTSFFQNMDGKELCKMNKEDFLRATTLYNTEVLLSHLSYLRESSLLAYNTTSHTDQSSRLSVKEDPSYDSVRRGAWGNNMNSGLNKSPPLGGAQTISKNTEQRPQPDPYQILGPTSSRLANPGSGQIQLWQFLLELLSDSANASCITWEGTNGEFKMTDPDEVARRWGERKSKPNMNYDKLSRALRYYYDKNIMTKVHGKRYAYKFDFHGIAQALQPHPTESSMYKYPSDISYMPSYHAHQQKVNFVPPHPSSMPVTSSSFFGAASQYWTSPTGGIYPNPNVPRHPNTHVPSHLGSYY
sequence,measurement,setting,value
GGTTTGAGGAAGTGAATGGG,binding signal,[1],6.28 z-score
same,binding signal,[2],6.38 z-score
same,binding signal,[3],3.12 z-score
CAGGAGAGGAACTGACAGGA,binding signal,[1],2.12 z-score
same,binding signal,[2],2.22 z-score
same,binding signal,[3],1.03 z-score
GGGAAGGGGAAGTGGCTAAG,binding signal,[1],5.24 z-score
same,binding signal,[2],5.73 z-score
same,binding signal,[3],2.56 z-score
CAAAAGAGGAAGTCAAACAC,binding signal,[1],7.73 z-score
same,binding signal,[2],7.19 z-score
same,binding signal,[3],3.71 z-score
AAAAAAGGGAAGTGCATTTG,binding signal,[1],8.12 z-score
same,binding signal,[2],7.06 z-score
same,binding signal,[3],3.51 z-score
AGATTGAGGAAGTGGGCTAT,binding signal,[1],6.86 z-score
same,binding signal,[2],6.78 z-score
same,binding signal,[3],3.12 z-score
AAAAAAAGGAACTCGCTAGA,binding signal,[1],4.16 z-score
same,binding signal,[2],3.9 z-score
same,binding signal,[3],0.923 z-score
TGAAAGAGGAAGTGCAACCA,binding signal,[1],7.27 z-score
same,binding signal,[2],7.28 z-score
same,binding signal,[3],3.66 z-score
GATAATAGGAAGTCCTCTGT,binding signal,[1],3.3 z-score
same,binding signal,[2],2.8 z-score
same,binding signal,[3],1.9 z-score
AGAATGGGGAAGTGGAGAGA,binding signal,[1],6.3 z-score
same,binding signal,[2],6.51 z-score
same,binding signal,[3],2.26 z-score
GCAGAGAGGAAGTGTGAATG,binding signal,[1],3.72 z-score
same,binding signal,[2],3.89 z-score
same,binding signal,[3],2.88 z-score
TAGAAGAGGAAATGAGAGGT,binding signal,[1],2.41 z-score
same,binding signal,[2],2.73 z-score
same,binding signal,[3],2.61 z-score
CCAGAAAGGAAGTACTCCTC,binding signal,[1],2.67 z-score
same,binding signal,[2],2.6 z-score
same,binding signal,[3],2.11 z-score
TCTCAGAGGAACTGGCCCAG,binding signal,[1],0.638 z-score
same,binding signal,[2],1.16 z-score
same,binding signal,[3],0.271 z-score
GCTTTGGGGAAGTGGAAATA,binding signal,[1],4.3 z-score
same,binding signal,[2],4.56 z-score
same,binding signal,[3],2.25 z-score
AAGAAGAGGAAGTCATAGGG,binding signal,[1],5.85 z-score
same,binding signal,[2],6.47 z-score
same,binding signal,[3],3.14 z-score
AAGAAGAGGAAGAGGCGTGA,binding signal,[1],2.66 z-score
same,binding signal,[2],2.9 z-score
same,binding signal,[3],1.03 z-score
AAGAAAAGGAAGTCCAGCTG,binding signal,[1],3 z-score
same,binding signal,[2],2.86 z-score
same,binding signal,[3],2.18 z-score
AAAAAGAGGAAGTACATTAA,binding signal,[1],8.68 z-score
same,binding signal,[2],7.54 z-score
same,binding signal,[3],4.22 z-score
GAGAAGAGGAAGTGCTGGGT,binding signal,[1],6.5 z-score
same,binding signal,[2],6.69 z-score
same,binding signal,[3],3.26 z-score
AGAACAAGGAAGTGCTCTAT,binding signal,[1],4.41 z-score
same,binding signal,[2],4.71 z-score
same,binding signal,[3],2.4 z-score
AAGAAGAGGAACTCCTTCCA,binding signal,[1],4.39 z-score
same,binding signal,[2],4.59 z-score
same,binding signal,[3],1.65 z-score
GAAAAGAGGAAGAGTCTCTG,binding signal,[1],4.86 z-score
same,binding signal,[2],5.62 z-score
same,binding signal,[3],2.37 z-score
AAATAGAGGAAGTGCTCAAT,binding signal,[1],7.44 z-score
same,binding signal,[2],7.12 z-score
same,binding signal,[3],3.95 z-score
TGAAAGAGGAAGTCCCTTCT,binding signal,[1],7.21 z-score
same,binding signal,[2],7.38 z-score
same,binding signal,[3],3.27 z-score
ATTTAAAGGAAGTGAAAATT,binding signal,[1],4.13 z-score
same,binding signal,[2],3.3 z-score
same,binding signal,[3],2.56 z-score
AGGGAGAGGAAGTGTGTCTG,binding signal,[1],3.65 z-score
same,binding signal,[2],3.48 z-score
same,binding signal,[3],2.54 z-score
CAAAGGAGGAAGTGCTACAC,binding signal,[1],5.85 z-score
same,binding signal,[2],6.26 z-score
same,binding signal,[3],3.01 z-score
ACAAAAAGGAACAGTGCCCC,binding signal,[1],0.616 z-score
same,binding signal,[2],0.885 z-score
same,binding signal,[3],0.152 z-score
AAAATGAGGAAGTAGAGGGA,binding signal,[1],7.96 z-score
same,binding signal,[2],7.16 z-score
same,binding signal,[3],3.49 z-score
CAAAAGAGGAAGTGGTATCA,binding signal,[1],8.24 z-score
same,binding signal,[2],7.39 z-score
same,binding signal,[3],4.31 z-score
CGAAAGGGGAAATGCTAAAC,binding signal,[1],3.64 z-score
same,binding signal,[2],3.59 z-score
same,binding signal,[3],1.96 z-score
GAAAACAGGAACTCCCATAG,binding signal,[1],5.34 z-score
same,binding signal,[2],6.04 z-score
same,binding signal,[3],2.26 z-score
TCCAGGGGGAAGTGCATGAC,binding signal,[1],3.24 z-score
same,binding signal,[2],3.45 z-score
same,binding signal,[3],1.49 z-score
AGGAAGGGGAACTGAAAACG,binding signal,[1],3.94 z-score
same,binding signal,[2],3.7 z-score
same,binding signal,[3],2.68 z-score
AAAAAGAGGAAGTCATTCTT,binding signal,[1],8.71 z-score
same,binding signal,[2],7.52 z-score
same,binding signal,[3],4.56 z-score
CGAAAGGGGAAGTGCTAACC,binding signal,[1],7.25 z-score
same,binding signal,[2],7.11 z-score
same,binding signal,[3],2.8 z-score
AGAAACAGGAAGTGATTTAC,binding signal,[1],7.72 z-score
same,binding signal,[2],7.3 z-score
same,binding signal,[3],5.82 z-score
ATATGGAGGAAGTGGAACCC,binding signal,[1],3.92 z-score
same,binding signal,[2],3.56 z-score
same,binding signal,[3],2.35 z-score
CAAATGAGGAACTGTTGCGG,binding signal,[1],5.57 z-score
same,binding signal,[2],5.99 z-score
same,binding signal,[3],1.87 z-score
TTTAAGAGGAAGTGAGATAG,binding signal,[1],5.9 z-score
same,binding signal,[2],6.21 z-score
same,binding signal,[3],3.15 z-score
GAAAAGAGGAAGTTAAAGAA,binding signal,[1],8.52 z-score
same,binding signal,[2],7.51 z-score
same,binding signal,[3],4.49 z-score
AGGGTGGGGAAGTGGCAGCT,binding signal,[1],2.62 z-score
same,binding signal,[2],2.84 z-score
same,binding signal,[3],1.32 z-score
ACAAAAAGGAACTGTGCCCC,binding signal,[1],1.82 z-score
same,binding signal,[2],1.55 z-score
same,binding signal,[3],0.392 z-score
TGAAAGAGGAAGTGCAACCG,binding signal,[1],7.49 z-score
same,binding signal,[2],7.25 z-score
same,binding signal,[3],4.02 z-score
CGAAAGGGGAAGTACTAAAC,binding signal,[1],6.92 z-score
same,binding signal,[2],6.96 z-score
same,binding signal,[3],3.49 z-score
TCAGAGAGGAAGTGTCACAC,binding signal,[1],3.83 z-score
same,binding signal,[2],4.02 z-score
same,binding signal,[3],2.47 z-score
TCAGTGAGGAAGTGAAACAC,binding signal,[1],3.58 z-score
same,binding signal,[2],4.36 z-score
same,binding signal,[3],2.14 z-score
ACAGAGAGGAAGTAGATAAA,binding signal,[1],4.75 z-score
same,binding signal,[2],5.07 z-score
same,binding signal,[3],2.85 z-score
CAAATGAGGAACTGATGCGA,binding signal,[1],6.15 z-score
same,binding signal,[2],6.63 z-score
same,binding signal,[3],2.32 z-score
CCCAGAGGGAAGTACTGTGA,binding signal,[1],2.98 z-score
same,binding signal,[2],2.96 z-score
same,binding signal,[3],1.25 z-score
AAAATGAGGAAGTGGCTTTG,binding signal,[1],8.37 z-score
same,binding signal,[2],7.46 z-score
same,binding signal,[3],3.85 z-score
AAAAAAGGGAAGTGTTGGAG,binding signal,[1],7.46 z-score
same,binding signal,[2],6.99 z-score
same,binding signal,[3],2.81 z-score
AAAATGAGGAAGTGTGATTA,binding signal,[1],7.8 z-score
same,binding signal,[2],7.36 z-score
same,binding signal,[3],3.52 z-score
AAAAAAAGTAACTGGCTAGA,binding signal,[1],-0.337 z-score
same,binding signal,[2],-0.0989 z-score
same,binding signal,[3],-0.219 z-score
GAAAAGAGGAAATCTTTGAA,binding signal,[1],4.57 z-score
same,binding signal,[2],3.82 z-score
same,binding signal,[3],2.3 z-score
GAAAAGGGGAAGTAGATGAG,binding signal,[1],8.06 z-score
same,binding signal,[2],7.2 z-score
same,binding signal,[3],3.86 z-score
